Source: PubChem BioAssay (NCATS)
“And” between values parts separate entries of the source, which are not always exact repeats. Equal entries are not always repeated. The inconclusive results got no clear call from the source; some entries with a clear call stand among them for comparison. A potency beside an inconclusive call is a rough fit, not a confirmed value. The source made the active and inactive calls. Calls follow the shape of the dose curve; as a rule, active = well fitted cell-killing curve with a large enough effect; inconclusive = small, poorly fitted or top-dose-only effect; inactive = no such curve, though single readings can be large or run the other way.

Assay: qHTS of pediatric cancer cell lines to identify multiple opportunities for drug repurposing: Primary screen for Rh30 cells (AID 1347107); also: nearly all actives have a fitted effect of over 75% in size
Conditions: Rh30 rhabdomyosarcoma viability, CellTiter-Glo luminescence, 48 h; series mostly up to 46 µM
Source text: Drug repurposing or repositioning has been offered as a strategy for drug development in oncology programs. This approach has special potential for childhood cancers and other rare or orphan diseases, where the expected return on new drug development has been a disincentive to pharmaceuticals.
In this project we exploit the poly-pharmacology of drugs to discover new indications via phenotypic screening of a panel of 19 well-characterized cell lines derived from solid tumors seen in children and adolescents. The goal is to identify approved drugs with previously unrecognized anticancer properties that has the potential to reveal new mechanisms and biological processes involved in carcinogenesis or drug resistance. We employed a titration-based paradigm (quantitative high-throughput screening or qHTS), where all compounds were tested at multiple concentrations for their effect on cell viability. Concentration-response curves (CRCs) were derived directly from the primary screen, and both potency and efficacy values were used to identify compounds with robust bioactivity profiles. We screened the NIH Chemical Genomics Center (NCGC) Pharmaceutical Collection (NPC) and Mechanism Interrogation Plate (MIPE) small molecule collections of approved and investigational compounds against these cell lines; and measured metabolically active cells after 48 hours of compound treatment as a proxy for cell viability.
Assay Submitter: Nathalia J. Martinez, National Center for Advancing Translational Sciences, National Institutes of Health, Rockville, MD, USA; email: natalia.martinez@nih.gov
[1] Shen, M et al. Quantitative high-throughput phenotypic screening of pediatric cancer cell lines identifies multiple opportunities for drug repurposing. Oncotarget 2017 Dec 19;9(4):4758-4772. PMID 29435139.
The cells were obtained from University of North Carolina (UNC), Pediatric Preclinical Testing Program (PPT), and Coriell Institute (CI).
qHTS cell viability assay:
Cells were assayed in growth media at a density of 500-1,000 cells/well. Five microliters of cells were dispensed into 1,536-well, white, solid-bottom, TC-treated plates (Greiner Bio One) using a multidrop dispenser and incubated at 37 degrees C, 5% CO2, under a humidified atmosphere for 5 hours. Twenty-three nanoliters of compounds and controls (neutral control DMSO or positive control bortezomib at final concentration of 2.3 µM) were subsequently transferred by Kalypsys pintool. For primary screens, the MIPE collection was tested at 11-point dilutions (final concentrations range from 0.78 nM to 46 µM) and the NPC collection at 8-point dilutions (final concentrations range from 0.59 nM to 46 µM). Compounds tested in follow-up screens were assayed at 11-point dilutions. Cells were incubated for 48 hours, followed by addition of 3 µL of CellTiter-Glo (Promega). After a 15 min incubation at room temperature, samples were analyzed for luminescence intensity using a ViewLux High-throughput CCD imager equipped with clear filters.
Potency is read from the fitted curve at half-maximal effect; tags tell the direction and shape of the fitted curve.

| Structure (SMILES) | Potency |
| --- | --- |
| C[C@H](NC(=O)[C@@H](O)c1cc(F)cc(F)c1)C(=O)N[C@@H]1C(=O)N(C)c2ccccc2-c2ccccc21 | inconclusive: 6.62 µM [cytotoxic, partial curve] |
| COc1cc(OC)c(C(=O)CCCN2CCCC2)c(OC)c1 | inconclusive: 20.9 µM [cytotoxic, partial curve] |
| CCCCC(CC)COC(=O)C(C#N)=C(c1ccccc1)c1ccccc1 (stereo not given) | inconclusive: 26.4 µM [cytotoxic, single point] |
| Cc1cc(O)c2ccccc2c1O | inconclusive: 26.6 µM [cytotoxic, single point] |
| O=C(O)c1cc(O)c2c(c1)C(=O)c1cccc(O)c1C2=O | inconclusive: 24.1 µM [cytotoxic, partial curve] |
| Cc1ccc(-n2nc(C(C)(C)C)cc2NC(=O)Nc2ccc(OCCN3CCOCC3)c3ccccc23)cc1 | inconclusive: 16.6 µM [cytotoxic, partial curve] |
| CC1(C)CCC2=C(O1)c1ccccc1C(=O)C2=O | active: 23.5 µM |
| O=C(Nc1ccc(OC(F)(F)F)cc1)c1sccc1NCc1ccnc2ccccc12 | inactive |
| N#CC(=C(N)Sc1ccccc1N)C(C#N)=C(N)Sc1ccccc1N | inconclusive: 14.8 µM [cytotoxic, partial curve] |
| COc1ccc2nc(NC(=O)Nc3ccccc3)sc2c1 | inactive |
| CN1Cc2cc(C(=O)N3CCC(C4CCNCC4)CC3)ccc2NC(CC(=O)O)C1=O (stereo not given) | inactive |
| COc1ccc(C2CC(c3ccccc3)=NN2c2ccc(S(N)(=O)=O)cc2)cc1 (stereo not given) | inconclusive: 20.9 µM [cytotoxic, partial curve, poor fit] |
| CN(C1CCc2c(c3ccccc3n2CC(=O)O)C1)S(=O)(=O)c1ccc(F)cc1 (stereo not given) | inconclusive: 9.35 µM [cytotoxic, partial curve] |
| COc1ccc(CC2=NN3C([C@@H](CCc4ccccc4)[C@@H](C)O)=NC(C)C3C(=O)N2)cc1OC (stereo not given in full) | inconclusive: 16.6 µM [cytotoxic, partial curve, poor fit] |
| Cc1ccc(S(=O)(=O)NC(=O)NC2CCCCC2)cc1 | inactive |
| CC(C)CNc1ccnc(NCc2csc(-c3ccccc3)n2)n1 | inactive |
| Oc1cccc(-c2c3nc(c(-c4cccc(O)c4)c4ccc([nH]4)c(-c4cccc(O)c4)c4nc(c(-c5cccc(O)c5)c5ccc2[nH]5)CC4)C=C3)c1 | inconclusive: 18.8 µM [cytotoxic, single point] |
| NS(=O)(=O)c1cccc2c1C(=O)c1cccc(O)c1C2=O | active: 2.35 µM |
| CCN(CC)CCOc1ccc(/C(=C(\Cl)c2ccccc2)c2ccccc2)cc1 | inactive |
| Cc1cc(OCCCc2c(C(=O)O)n(Cc3cccnc3)c3c(-c4c(COc5ccc(N6CCN([S+](C)(=O)[O-])CC6)cc5)nn(C)c4C)cccc23)cc(C)c1Cl | inconclusive: 6.62 µM [cytotoxic, partial curve] |

| Structure (SMILES) | Potency |
| --- | --- |
| CN(C(=O)C(Cl)Cl)c1ccc(OC(=O)c2ccco2)cc1 | inactive |
| O=c1c(-c2ccc(O)cc2)coc2cc(OC3O[C@H](CO)[C@H](O)[C@H](O)[C@H]3O)cc(O)c12 (stereo not given in full) | inconclusive: 5.9 µM [cytotoxic, full curve] |
| N=C1N=C(N)c2cc3ccccc3cc21 | inconclusive: 30.6 µM [cytotoxic, partial curve, poor fit] |
| O=C1C(Cl)=C(NCCN2CCOCC2)C(=O)c2ncccc21 | active: 8.33 µM |
| COc1cccc2c1CCCC2CCCN1CCN(C2CCCCC2)CC1 (stereo not given) | inconclusive: 14.8 µM [cytotoxic, partial curve, poor fit] |
| O=c1cc(-c2ccccc2)oc2cc(O)cc(O)c12 | inactive |
| CCC1(c2ccccc2)C(=O)NCNC1=O | inconclusive: 33.2 µM [cytotoxic, single point] |
| O=C1NC(=O)C(=Cc2ccc(-c3ccc(F)cc3O)o2)S1 | inconclusive: 4.18 µM [cytotoxic, partial curve] |
| CN(C)CCCSc1ccccc1NC(=O)/C=C/c1ccccc1 | inactive |
| Cc1ccc(C(=O)Nc2cccc(C(F)(F)F)c2)cc1Nc1nc(-c2cccnc2)nc2c1cnn2C | active: 18.7 µM |
| COc1cc(Oc2ccnc3cc(OC)c(OC)cc23)ccc1NC(=O)NC(C)c1nccs1 (stereo not given) | inconclusive: 16.6 µM [cytotoxic, partial curve, poor fit] |
| O=C(NOCC1CC1)c1ccc(F)c(F)c1Nc1ccc(I)cc1Cl | inconclusive: 18.8 µM [cytotoxic, single point] and inconclusive: 20.9 µM [cytotoxic, partial curve] |
| CC(NCCC(c1ccccc1)c1ccccc1)c1ccccc1 (stereo not given) | inconclusive: 26.6 µM [cytotoxic, single point] |
| CC1(C)NC(=O)N(c2ccc([N+](=O)[O-])c(C(F)(F)F)c2)C1=O | inconclusive: 6.62 µM [cytotoxic, partial curve] |
| c1ccc2c(Cc3c[nH]c4ccccc34)c[nH]c2c1 | inconclusive: 13.2 µM [cytotoxic, partial curve] |
| O=c1[nH]c2ccccc2n1CCCN1CCN(C(c2ccccc2)c2ccccc2)CC1 | inactive |
| CC(C)(C)Cn1c(N)nc2ccc(-c3[nH]c(C(C)(C)C)nc3-c3ccc(F)cc3)nc21 | active: 20.9 µM |
| O=[N+]([O-])c1ccc(Nc2ccccc2-c2ccccc2)c2nonc12 | inconclusive: 13.2 µM [cytotoxic, partial curve, poor fit] |
| CNC(=O)Oc1ccc2c(c1)[C@]1(C)CCN(C)[C@@H]1N2C | inactive |
| Cc1nc(NC(=O)N2CCC[C@@H]2C(N)=O)sc1-c1ccnc(C(C)(C)C(F)(F)F)c1 | inconclusive: 9.35 µM [cytotoxic, partial curve] |
